In PubChem BioAssay AID1671193 (National Center for Advancing Translational Sciences (NCATS), 2021):
Among all 150,000 compounds or so, about 180 (0.12%) were called active. The shares of active, inactive and inconclusive entries below differ from those in the screen. Calls follow the shape of the dose curve; as a rule, active = well fitted cell-killing curve with a large enough effect; inconclusive = small, poorly fitted or top-dose-only effect, or effect the other way; inactive = flat fitted curve, though single readings scatter. A potency beside an inconclusive call is a rough fit, not a confirmed value.

Test: GF-AFC viability counterscreen for inhibitors of alpha-synuclein gene (SNCA) expression; also: nearly all actives have a fitted effect of over 30% in size;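 as to activity change, negative = cytotoxicity: 0% = DMSO-treated cells and -100% = medium-only wells without cells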
Details: HEK-293-SNCA-luc viability, GF-AFC fluorescence, 24 h; activity change, negative = cytotoxicity: at 57.1 µM (top of the series) unless noted
Method in brief: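 Cytotoxicity counterscreen: after 24 h compound treatment of genome-edited SNCA-luciferase HEK-293 cells, live-cell protease substrate GF-AFC read by fluorescence after 30 min; activity scaled between DMSO (0%) and medium-only (-100%), curves Hill-fitted.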
Potency is read from the fitted curve at half-maximal effect; tags tell the direction and shape of the fitted curve.

SMILES | Potency | activity change, negative = cytotoxicity
O=C(CCC(F)(F)F)N1CCCC(CCc2c(F)cccc2F)C1 (centres undefined) | inactive | 
CCOC(=O)c1c(-c2ccccc2)csc1NC(=O)c1nc(SCC)ncc1Cl | inconclusive: 1.12 µM [rising, full curve] | 
COc1cccc(CN2C[C@@H](Oc3ccccc3)C[C@H]2C(N)=O)c1 | inactive | 
Cn1c([C@H]2CCN(C3CCCCC3)C2)nc2ccccc21 | inconclusive: 63.1 µM [cytotoxic, single point] | 
C=C(C)C(=O)OC1CC2(C)OC(=CC2=O)C(=C)CC2OC(=O)C(=C)C12 (centres undefined) | active: 11.7 µM | 
Cc1cccc(-n2ncc(C(=O)NCc3ccc4c(c3)OCO4)c2C2CCN(C(=O)OC(C)(C)C)CC2)c1 | inconclusive: 39.8 µM [cytotoxic, single point] | 
CCC(=O)Nc1ccc(S(=O)(=O)NCc2cccn2Cc2cccc(C)c2)cc1 | inconclusive: 39.8 µM [cytotoxic, single point] | 
COc1cccc(NC(=O)Cn2c(=O)n(Cc3nc(-c4ccccc4)no3)c(=O)c3ccccc32)c1 | inconclusive: 1.41 µM [cytotoxic, full curve, poor fit] | 
COc1ccc(NC(=O)Cn2ccn3nc4c(c3c2=O)CC(C)CC4)cc1Cl (centres undefined) | inactive | 
CC(=O)NCCNC[C@@H]1C=C(C)[C@H](Cc2nnc(-c3ccccc3)o2)C[C@H]1C(C)C | inconclusive: 31.6 µM [cytotoxic, partial curve] | 
CCOc1ccc(-c2ccnc(-c3ncccn3)n2)cc1C(=O)O | inconclusive: 7.08 µM [rising, single point] | 
CC1CCN(C(=O)c2ccccc2OCC2CCCN(C(=O)C3CCOCC3)C2)CC1 (centres undefined) | inactive | 
Cc1ccc(C(=O)N2c3nc(-c4ccco4)nn3C3(CCCCC3)[C@@H]3CCCC[C@@H]32)cc1 | inconclusive: 12.6 µM [cytotoxic, partial curve, poor fit] | 
CN1C(=O)N(C)C2(CCN(c3cc(C4CC(O)C4)ncn3)CC2)C1=O (centres undefined) | inactive | 
COCC1CN(C)CC12CCN(C(=O)CC1=CCCCC1)CC2 (centres undefined) | inconclusive: 2 µM [rising, full curve, poor fit] | 
COc1ccnc(-c2nnc3ccc(N4CCN(C(=O)c5ccco5)CC4)nn23)c1 | inactive | 
O=C(C1CCN([S+](=O)([O-])c2cccc(C(F)(F)F)c2)CC1)N1CCC(N2Cc3ccccc3C2=O)CC1 | inactive | 
Cc1oc(C(O)c2ccccc2)nc1C(=O)Nc1ccc(C(=O)Nc2ccccc2)cc1 (centres undefined) | inconclusive: 56.2 µM [cytotoxic, single point] | 
Cc1nc2cccnc2n1C1CCN(C(=O)Nc2ccccc2C(F)(F)F)CC1 | inconclusive: 31.6 µM [cytotoxic, partial curve, poor fit] | 
CCOC(=O)c1cc2c(=O)n3ccccc3nc2n(Cc2ccco2)c1=NC(=O)c1ccc(OC)cc1 | inconclusive: 4.47 µM [rising, single point] | 
CN1C(=O)C2(CCN(C(=O)c3cn[nH]c3-n3cnnn3)CC2)c2ccccc21 | inactive | 
CC(=O)OC[C@@H]1O[C@@H](n2ccc(=O)[nH]c2=O)[C@H](OC(C)=O)[C@H]1OC(C)=O | inconclusive: 42.9 µM [cytotoxic, single point] | 

SMILES | Potency | activity change, negative = cytotoxicity
CC(C)(C)c1ccc(-c2cc(C[C@H]3CNCC[C@H]3CC(=O)N3CCN(c4ccccn4)CC3)no2)cc1 | inconclusive: 39.8 µM [cytotoxic, single point] | 
CCOC(=O)c1ccc(NC(=O)CC2Nc3cc(C)c(C)cc3NC2=O)cc1 (centres undefined) | inconclusive: 22.4 µM [cytotoxic, partial curve, poor fit] | 
COc1ccc(Nc2ccnc(N3CCCC(C(=O)N4CCC(Cc5ccccc5)CC4)C3)n2)cc1 (centres undefined) | inconclusive: 39.8 µM [cytotoxic, single point] | 
CC(C)C[C@H](NC(=O)c1csc2nc(-c3cccc(C(F)(F)F)c3)cn12)C(N)=O | inactive | 
Cc1[nH]c(C=C2C(=O)Nc3ccccc32)c(C)c1CCC(=O)O | inconclusive: 24.1 µM [rising, partial curve] | 
N#Cc1ccc(COC[C@H]2O[C@@H](n3c(NCc4ccc(Cl)c(Cl)c4)nc4c(N)ncnc43)[C@@H](O)[C@@H]2O)cc1 | inconclusive: 6.07 µM [cytotoxic, partial curve, poor fit] | 
Cc1nc(CN2Cc3nc(-c4cnn(Cc5ccccc5)c4)ccc3OCC2=O)cs1 | inactive | 
COc1ccc(CNC(=O)CN2C(=O)COc3ccc(S(=O)(=O)N4CCCCCC4)cc32)cc1 | inconclusive: 11.2 µM [cytotoxic, partial curve, poor fit] | 
CC(=O)NC1(C)CCN(Cc2cccc(-c3ccc4ccccc4c3)c2)C1 (centres undefined) | inactive | 
CCNc1ncc2nc(-c3cc(F)cc(F)c3)c(=O)n(C[C@H]3CCCO3)c2n1 | inconclusive: 3.16 µM [rising, partial curve, poor fit] | 
COc1ccc(C(=O)NC2CCCN(c3cc(-c4ccc(F)cc4)[nH]n3)C2)cc1 (centres undefined) | inconclusive: 10 µM [cytotoxic, partial curve, poor fit] | 
CCCN1CCC2(Cc3ccccc3CN([S+](=O)([O-])c3ccccc3)C2)C1 (centres undefined) | inconclusive: 35.5 µM [cytotoxic, single point] | 
CCN1c2cc(C(=O)Nc3ccccc3)ccc2C(=O)N2CCCCCC21 (centres undefined) |  | inactive: 15.5% [at 12.5 µM]
COc1cc2c(N3CCN(C(=O)Nc4ccc(OC(C)C)cc4)CC3)ncnc2cc1OCCCN1CCCCC1 | inconclusive: 13.6 µM [cytotoxic, full curve, poor fit] | 
COCCNC(=O)C1CCN(c2nccc(Nc3ccccc3Cl)n2)CC1 |  | inactive: 1.54% [at 12.5 µM]
COC(=O)CCNC(=O)C1c2ccccc2C(=O)N(C2CCCCC2)C12CCCCC2 (centres undefined) | inconclusive: 2.51 µM [cytotoxic, full curve, poor fit] | 
Cc1ccccc1CNCCSc1nnnn1C | inconclusive: 0.282 µM [rising, full curve, poor fit] | 
Cc1ccc(C(=O)N2CCC(N(C(=O)Cc3ccccc3)C3CCOCC3)CC2)cc1F | inactive | 
CCCn1nc(C)c(-c2cc(C(=O)N3CCc4c(nc5cc(-c6ccccc6)[nH]n5c4=O)C3)[nH]n2)c1C | inactive | 
O=C(NCCC1CCN(C(=O)Nc2ccc(F)cc2)CC1)c1cc(F)ccc1F | inactive | 
CC1CCN(CC2CCCCCN2C(=O)NCc2ccc(F)cc2)CC1 (centres undefined) | inactive | 
Cc1ccc2c(c1)c(=O)c1ccccc1n2CCCC(=O)Nc1ccc(C)c(C)c1 | inconclusive: 3.98 µM [rising, full curve, poor fit] | 

SMILES | Potency | activity change, negative = cytotoxicity
COc1ccc(-c2nc3cnc(N4CCOCC4)nc3n(Cc3cccs3)c2=O)cc1 | inconclusive: 28.2 µM [rising, partial curve, poor fit] | 
Cc1ccccc1-c1noc(CCC(=O)N2CCC3(CCCNC3)C2)n1 (centres undefined) | inconclusive: 22.4 µM [cytotoxic, single point] | 
CN1CCC(N2CCC[C@@H](O)[C@H](NC(=O)c3ccc(OCc4ccccc4)cc3)C2)CC1 | inactive | 
COCC(=O)N1CCC(C(=O)N2CCC3(CC2)CC(=O)Nc2ccccc2O3)CC1 | inactive | 
Cc1ccc(CN2CCc3oc(C)c(C(=O)NCCCN4CCN(C)CC4)c3C2)cc1 | inconclusive: 20 µM [cytotoxic, single point] | 
O=C1NC(=NC2CCCCC2)C2(CCN(Cc3cccnc3)C2)N1c1cccnc1 (centres undefined) | inconclusive: 7.08 µM [cytotoxic, single point] | 
CCNC(=O)[C@@H]1CCCN1[C@@H](C(=O)NC)c1ccccc1F | inactive | 
CCCn1c(=N)c(C(=O)NC2CCCCC2)cc2c(=O)n3cc(C)ccc3nc21 | inconclusive: 20 µM [rising, partial curve, poor fit] | 
COc1ccc(-c2noc(-c3cccn3CC(=O)N(C)c3ccc(F)cc3)n2)cc1F | inconclusive: 12.6 µM [cytotoxic, partial curve, poor fit] | 
CCC(C)S(=O)(=O)c1oc(-c2ccc(F)cc2)nc1S(=O)(=O)c1ccc(F)cc1 (centres undefined) | active: 28.2 µM | 
Cc1ccccc1CN1Cc2nc(-c3ccsc3)ccc2OCC1=O | inactive | 
CCn1c(=N)c(C(=O)NC2CCCC2)cc2c(=O)n3cc(C)ccc3nc21 | inconclusive: 28.2 µM [rising, partial curve, poor fit] | 
C=CCNC(=O)c1cnn2c1CN(C(=O)c1cccnc1)CC2 | inactive | 
CN(C)C(=O)C(CCN1CCC(O)(c2ccc(Cl)cc2)CC1)(c1ccccc1)c1ccccc1 | inconclusive: 7.08 µM [rising, partial curve, poor fit] | 
CC(C)C[C@@H]1N[C@H](C(=O)NCc2ccc(C#N)cc2)Cc2c[nH]c3cccc1c23 | inconclusive: 56.2 µM [cytotoxic, single point] | 
CCCNC(=O)c1cccc2c1CCN2S(=O)(=O)c1ccc(C)cc1 | inactive | 
O=C(NC1CCc2n[nH]c(=O)n2CC1)c1ccc2ccccc2n1 (centres undefined) | inconclusive: 14.1 µM [cytotoxic, partial curve, poor fit] | 
CN(C)c1nc(NC2CCC(NC(=O)c3ccc(F)c(F)c3)CC2)nc2ccccc12 (centres undefined) | inconclusive: 7.52 µM [cytotoxic, full curve, poor fit] | 
Cc1cccc(NC(=O)CN2C(=O)C(c3ccc(F)cc3)=NC23CCCCCC3)c1C | inconclusive: 22.4 µM [cytotoxic, single point] | 
COc1ccccc1C(=O)NC[C@@H]1C=C(C)[C@H](Cc2nc3ccccc3[nH]2)C[C@H]1C(C)C | inconclusive: 39.8 µM [cytotoxic, partial curve, poor fit] | 
